Data published in the supplement of paper PMC10986608.
Some of the results follow. Single values are uncertain, as repeats are few or missing.

system: Candida albicans DPL-15; assay: growth (OD600) after compound treatment (apparently relative to screen median) (relative growth (fraction; screen median 1.02)); DPL-15 is a caspofungin-resistant clinical isolate; higher = more fungal growth (less antifungal activity); settings: 25 µM; RPMI 1640; 48 h; 30 °C

| SMILES | growth |
| --- | --- |
| COC(=O)C1=C(C)N(CCc2cccs2)C(NCCc2cccs2)=NC1c1ccc(C)cc1 (stereo not drawn) | 0.918 |
| Cc1nnc(C)c2c1/C=C\OC[C@@H](c1ccccc1)NC(=O)[C@@H]1C[C@@H](O)CN1C(=O)c1cccc-2n1 | 0.944 |
| C=C(C)[C@@H]1[C@H](c2cc(OC)c(O)c3oc4ccccc4c(=O)c23)C=C(C)C[C@H]1c1cc(OC)c(O)c2oc3ccccc3c(=O)c12 | 1.1 |
| CCOc1ccccc1-c1cc(=O)[nH]c2cc3c(cc12)OCO3 | 1.02 |
| COc1ccc(N2C(=O)C3=C(C(C(C)C)=NCCN3)C2c2ccc(F)cc2)cc1 (stereo not drawn) | 1.08 |
| COC(=O)[C@H]1C(=O)[C@]2(c3cccn3C)Oc3c(OC)cc(OC)cc3O[C@@]2(c2ccc(OC)cc2)[C@@H]1c1ccccc1 | 0.897 |
| [N-]=[N+]=NC(=O)[C@@H]1CCCN1C(=O)/C=C/c1ccccc1 | 1.05 |
| COC(=O)Cc1nnn2c1[C@H](C)[C@H](c1ccccc1Br)OCC2 | 0.828 |
| COC(=O)C/C=C/[C@H](C)[C@H](NC(=O)C(F)(F)F)c1ccc(OC)cc1 | 0.992 |
| CC1([C@@H]2CC[C@]3(CO)CC[C@]4(C)[C@H](CC[C@@H]5[C@@]6(C)CC[C@H](O)C(C)(C)[C@@H]6CC[C@]54C)[C@@H]23)CO1 (stereo partly drawn) | 1.17 |
| CC#C/C(O)=C1/C(=O)OCc2c(OC)cc(OC)cc21 | 1.01 |
| COc1ccc([C@@H]2[C@@H](C(=O)Nc3ccccc3)[C@H](C(=O)Nc3ccccc3)[C@H]2c2ccc(OC)c(OC)c2)cc1OC | 1 |
| CC1(C)CNC(=O)CC2(CCCCC2)CNC(=O)c2cccc(n2)-c2[nH]ncc2C1 | 1.07 |
| CC(=O)[C@H]1C[C@H]2C3=C(C(=O)OCC3)[C@@H]1O[C@@H]2C | 1.06 |
| CCCCc1cccc(Cl)n1 | 1.12 |
| COC(=O)C1=C(C)N(Cc2ccc(F)cc2)C(=S)NC1c1cccc(Br)c1 (stereo not drawn) | 0.951 |
| CC(=O)N[C@H]1CCN(C(=O)c2c(O)cc(O)cc2Nc2cnn(C)c2)C1 | 1.01 |
| CCO[C@H]1CCN(C(=O)c2c(O)cc(O)cc2Nc2cn(C)nc2C)C1 | 1.12 |
| COC(=O)C1=C(C)N(CC#C[Si](C)(C)C)C(=O)NC1c1ccccc1 (stereo not drawn) | 0.988 |
| Cc1ccc(S(=O)(=O)N/N=C/c2cccc(C(=O)NCC3(CC(=O)ON4C(=O)CCC4=O)CCCCC3)c2)cc1 | 0.951 |
| CC(C)[C@H]1NC(=O)C[C@H]2C[C@H](C)[C@H](c3ccccc3)N2C1=O | 1.09 |
| CCNC(=O)c1cc(-c2c(O)cc(O)cc2Nc2ccn(C)n2)on1 | 1.02 |
| CO[C@@H]1[C@H](O)CC[C@]2(O)CN3[C@@H](Cc4ccccc4)C(=O)O[C@H](CC=C(C)C)[C@]3(C)[C@@H]12 | 1.16 |
| CC(=O)C1=C2C=CCCN2C(=O)NC1c1ccccc1C(F)(F)F (stereo not drawn) | 0.935 |
| O=S(=O)(NCC(F)(F)F)OCCCc1ccccc1 | 1.1 |
| CC(C)Cc1n[nH]c2c1C(c1ccc(F)cc1)N(c1ccc3c(c1)OCCO3)C2=O (stereo not drawn) | 1.18 |

| SMILES | growth |
| --- | --- |
| COC(=O)c1c(O)ccc2oc3cc(C)cc(O)c3c(=O)c12 | 0.665 |
| COC(=O)C/C=C/[C@H](C)[C@H](NC(=O)C(F)(F)F)c1ccc(C(F)(F)F)cc1 | 1.04 |
| CC(C)(C)NS(=O)(=O)OCCCN1C(=O)c2ccccc2C1=O | 1.08 |
| COc1cc2c(c(OC)c1OC)[C@@]1(c3ccccc3)CCCC[C@H]1[C@@H]2NC(=O)C(F)(F)F | 1.06 |
| COc1cc(OC)c2c(=O)ccoc2c1I | 0.977 |
| CC(C)c1c2c(nn1-c1ccc(F)cc1)C(=O)NC2c1ccc(Br)cc1 (stereo not drawn) | 0.896 |
| CNS(=O)(=O)OCCC(C)CCCC(C)C (stereo not drawn) | 1.1 |
| C=CCC1=C(OC)[C@@]2(CC=C)C[C@H](Cc3ccc(OC)cc3)[C@@](C(=O)c3ccccc3)(C1=O)C2=O | 1.1 |
| COc1ccc(N2C(=O)c3[nH]nc(CC(C)C)c3C2c2cccc(F)c2)cc1 (stereo not drawn) | 0.904 |
| C=CCN1C(=O)[C@H]2[C@H]3c4ccccc4[C@]([C@@H](COC)OC)(c4ccccc43)[C@H]2C1=O | 1.11 |
| O=C1CC2(CCCCC2)CNC(=O)c2cccc(c2)-c2[nH]ncc2COCCOCCN1 | 1.37 |
| CC(C)Cc1n[nH]c2c1C(C1CCCCC1)N(c1ccc(Br)cc1)C2=O (stereo not drawn) | 1.05 |
| C#C[C@]1(O)C(OC)=C[C@@H]2C(=O)[C@H]1[C@H](c1ccccc1)[C@H]2C | 1.01 |
| C#CCOc1ccccc1CNC(=O)CC1(CNC(=O)c2cccc(/C=N/NS(=O)(=O)c3ccc(C)cc3)c2)CCCCC1 | 1.06 |
| Cc1cc(C)cc(-n2nc(-c3ccccc3)c3c2C(=O)NC3c2ccc(Br)cc2)c1 (stereo not drawn) | 0.768 |
| CC(C)(C)NS(=O)(=O)OCCCCC1OCCO1 | 1.07 |
| Cc1nn(-c2ccc(F)cc2)c2c1C(c1ccc(Br)cc1)NC2=O (stereo not drawn) | 1.18 |
| Brc1ccc(-c2ccc3c(n2)CCCN3C[C@@H]2CO2)cc1 | 0.96 |
| CC(C)(C)c1ccc(C#C[C@@H]2C=C[C@@H](OC(N)=O)[C@@H](COC(N)=O)O2)cc1 | 0.983 |
| Cn1cc(Nc2cc(O)cc(O)c2C(=O)N2CC[C@H](F)C2)cn1 | 1.07 |
| CC(=O)OC[C@H]1O[C@H](c2ccccc2F)C=C[C@H]1OC(C)=O | 0.929 |
| CC(=O)OC[C@H]1O[C@H](C#Cc2ccc(Br)cc2)C=C[C@@H]1OC(C)=O | 0.986 |
| COC(=O)C1=C(C)N(Cc2ccc(C(F)(F)F)cc2)C(NCCc2ccccn2)=NC1c1cccc(Cl)c1 (stereo not drawn) | 1.04 |
| CC(=O)OC[C@H]1O[C@H](C#Cc2ccccc2C)C=C[C@H]1OC(C)=O | 0.867 |
| COc1c(C)c(C)c(C(=O)OC/C=C/c2ccccc2)c(O)c1C | 0.933 |
| CCCCC[C@]12Cc3cc(OC)c(OC)cc3[C@H](O1)c1c(c3ccccc3n(C)c1=O)O2 | 0.916 |

| SMILES | growth |
| --- | --- |
| CC(C)=CCCC1=CC[C@@H](C(=O)c2ccccc2O)[C@H](c2ccccc2)C1 | 1.06 |
| C[C@H]1C[C@@H]2CC(=O)N3CCC[C@@H]3C(=O)N2[C@H]1c1ccccc1 | 1.18 |
| CCCN1C(NCc2cccc(C(F)(F)F)c2)=NC(c2ccc(F)cc2)C(C(=O)OC)=C1C (stereo not drawn) | 1.14 |
| CC1=NCC(C)(C)NC2=C1C(c1ccccc1)N(c1ccccc1)C2=O (stereo not drawn) | 1.03 |
| COC(=O)c1cc2c(c3c4cc(C)ccc4n(S(=O)(=O)c4ccc(C)cc4)c13)C(=O)N(Cc1cccc(F)c1)C2 | 1.02 |
| CC(=O)OC[C@H]1O[C@H](C#Cc2ccc(C)cc2)C=C[C@@H]1OC(C)=O | 0.817 |
| COc1ccc(N2C(=O)c3[nH]nc(CC(C)C)c3C2c2nccs2)cc1 (stereo not drawn) | 1.3 |
| CC(C)C1=NCCN(C)C2=C1C(c1ccc3c(c1)OCO3)N(c1ccccc1)C2=O (stereo not drawn) | 0.998 |
| Cc1cc2c(nc1C)CCCN2S(=O)(=O)c1ccc(C(F)(F)F)cc1 | 0.898 |
| Cc1cc(O)c2c3c4c(cc(O)c13)O[C@@]1(c3ccc([N+](=O)[O-])cc3)OCC[C@H]1[C@H]4OC2=O | 1.08 |
| COC(=O)c1[nH]c2ccc(F)cc2c1[C@]12CCN(C(=O)c3ccc(S(C)(=O)=O)cc3)[C@H]1Nc1ccccc12 | 1.14 |
| CC(C)Cc1nn(-c2ccccc2)c2c1C(c1cccc(C(F)(F)F)c1)NC2=O (stereo not drawn) | 1.15 |
| CC(C)Cc1n[nH]c2c1C(c1ccc(F)cc1)N(c1ccc(O)cc1)C2=O (stereo not drawn) | 1.11 |
| Cc1cc(C)cc(-n2nc(-c3ccccc3)c3c2C(=O)NC3c2ccccc2)c1 (stereo not drawn) | 0.809 |
| CC(C)(O)Cn1nc2cc1COC[C@@H](c1ccccc1)NC(=O)CC1(CCCCC1)CNC(=O)c1cccc-2c1 | 1.01 |
| COc1cc2c(cc1OC)C[N@H+](CCc1ccc(NC(=O)c3cccc4c(=O)c5cccc(OC)c5[nH]c34)cc1)CC2 | 1.12 |
| COC(=O)C1=C(C)N(CCCOC(C)C)C(NCc2cccc(C(F)(F)F)c2)=NC1c1ccccc1 (stereo not drawn) | 1.03 |
| C=CCC1=C(OC)[C@@]2(CC=C)C[C@@H]3[C@@H](c4ccc(Br)cc4)[C@](O)(c4ccccc4)[C@]3(C1=O)C2=O | 1.03 |
| CC(=O)OC[C@H]1O[C@H](c2ccc3c(c2)OCO3)C=C[C@H]1OC(C)=O | 0.767 |
| COC(=O)[C@@]12Oc3ccc(I)c(O)c3C(=O)C1=C(OC)CC[C@H]2OC(C)=O | 0.964 |
| CC(C)CCc1cc(OCC(=O)NCC(=O)NCc2ccccc2)cc2oc3ccccc3c(=O)c12 | 1.03 |
| CCOC(=O)c1nnc2c3ccccc3n(COC)c2n1 | 1.24 |
| COCn1c2ccccc2c2cc3c(nc21)C(=O)OC3C (stereo not drawn) | 1.04 |
| COc1ccc(N2C(=O)c3[nH]nc(CC(C)C)c3[C@H]2c2ccc(F)cc2C)cc1 | 1.2 |
| COC(=O)C1=CC(OC)=C(Cl)C(=O)C1(OC)OC | 1.11 |
| O=S(OCCC(C)CC/C=C(C)/C)(NC(C)(C)C)=O (stereo not drawn) | 0.876 |
